# Laboratory results taken from the supplement of paper PMC11417369.
# ± gives the standard deviation of the averaged measurements. This is one part of the list.
# Test system: PfAP2-G AP2 domain (GST-tagged)
# Test: gcPBM binding intensity (ln(normalized median fluorescence intensity)); higher = stronger DNA binding
# Summary of the method: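 GST-tagged P. falciparum DNA-binding domains produced in E. coli were incubated for 1 h on an Agilent 4 × 180k array of primer-extended double-stranded 36-bp intergenic genomic probes with negative controls. Binding intensity is the highest Masliner-normalised natural-log median intensity across replicate spots of either probe orientation, with bound protein detected by Alexa488 anti-GST antibody at 488 nm.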
row,Sequence,gcPBM binding intensity (ln)
1,AACATATATTTTTAATGTACAAGGTTGTAAAGAACT [XGTACX_site1405],10.8 ± 0.31
2,ATATTAAAATTTTAATGTACATGCGTATGTAGGAAT [XGTACX_site1673],11 ± 0.53
3,AAAGAATAATTAAATACACACATATTGCAGTAAAAA [CACACA_site7201],10.04 ± 0.057
4,TGTAAAATATAAAAAGTGCATTTCTTTTAATATGAT,9.875 ± 0.007
5,ATGTATATATTCAATTGTACATGTTATATTTACACA [XGTACX_site1125],11.1 ± 0.64
6,ATTGTATTAAAATGCACACATATCAAGAGGAATTTT [CACACA_site283],10.1 ± 0.14
7,TATATTAAAATTTACTGTACTTTTTTTATTTTAAAA [XGTACX_site4077],11.6 ± 1.1
8,TTAAATAATGCCACCAGTACCCACTGAAAGAAAAAA [XGTACX_site5013],10.9 ± 0.59
9,CAATTGATATTGAAATGTACTTTTTAGATGAACCTT [XGTACX_site2354],11.3 ± 0.67
10,AAAGATATAAATTACTGTACTAATGAAATTGGTAAA [XGTACX_site3582],11.1 ± 0.73
11,ACCTTAAATAATACATGTACAAAAAAATTTATAATA [XGTACX_site1043],11 ± 0.49
12,TAGGGATTATACCACACACACATACACATAAATATA [CACACA_site3178],10.2 ± 0.27
13,AAGAATAAGGAAAAATGTACAGAATGCACATATGAA [XGTACX_site4705],10.8 ± 0.5
14,AATTTTATTACTTTTACACACCTATATATCATTCAT [CACACA_site7525],10 ± 0.028
15,AAAAAAAATACAAAAAGTACAAAAAATACAAAAAAA [XGTACX_site8844],11.1 ± 0.66
16,ATGTATATATATATATGTACATATTTTTTATATGTA [XGTACX_site441],11.2 ± 0.81
17,TTCTTTTTTTAAAGAAGTACTATATTTTAAATTATA [XGTACX_site5059],11.2 ± 0.93
18,TTTAAAATAAATTAATAGAACAAAAATAAAATGATT [GTGCAC_negctrl_site375],9.89
19,AATAATAAAAAAAGTGCACACACATAATATATATAT [CACACA_site9100],10.7 ± 0.52

row,Sequence,gcPBM binding intensity (ln)
1,TATAAAAAAATAAAAGGAATATACTTGCAAAGGGTA [CACACA_negctrl_site1438],10.14 ± 0.014
2,TTTCAAATGATTAAGTGTACATGTTTGCTTGCTCTT [XGTACX_site4697],11.3 ± 0.82
3,TTTTTTTTTGTTATGTTGCACTTTGCCATATTATTA [GTGCAC_site9844],10.1 ± 0.15
4,AATATAAAAAATAATACACACACATGGCGACAAAAT [CACACA_site8765],10.3 ± 0.16
5,ATGTAAGTAATTATCTGTACACATAATATATATATA [XGTACX_site2618],11.5 ± 1
6,CACATAAATAATTAAACACACATTGTTCTAGACAAT [CACACA_site2378],9.95 ± 0.16
7,TTTGAGTTACTATTCACACAAAATGGATAAATTAAT [CACACA_site5626],10.1 ± 0.13
8,TACATATTACTATTCAGTACATATTTTTTTTTCATT [XGTACX_site7468],10.9 ± 0.67
9,TATATAGGTATATATACACACAACGGTTATAAATAT [CACACA_site4759],10.03 ± 0.035
10,TATAAAGACACGAAAACACACATATGTAAATATATA [CACACA_site8056],10.1 ± 0.12
11,AGGATAAAAGTTATGGTGCATTAACCTATTTAAATA,10.1 ± 0.14
12,TAGTTTTGAAAACAAACACACAAAAAAAAAAAAAAA [CACACA_site1692],9.88 ± 0.52
13,ATACGATTGCAGTCAAAAAGGAAAATATAAAAAAAG [XGTACX_negctrl_site124],10.2 ± 0.25
14,AATATTTATAAATTTACACACACACCCGTGAACATA [CACACA_site1910],10.3 ± 0.11
15,TTATCATTTTAAATCACACACATATATAAATATGTA [CACACA_site7359],9.735 ± 0.035
16,TCCTCATTTTATCATACACACTTGTTTATATGTGTG [CACACA_site6548],10.12 ± 0.064
17,TATATATATATAATTTGTACACACAAATATGCATAT [XGTACX_site7297],11.1 ± 0.57
18,ATATATAATAATTGTAGTACAATTAATAAATAAAAT [XGTACX_site3840],11.5 ± 0.92
19,ATAAAATAAAAACATGCACACTTTATTTTTTTTAAG [CACACA_site5545],10.03 ± 0.021

row,Sequence,gcPBM binding intensity (ln)
1,AAAGAAGGGGGGGGAAAAAAAAATAAAAGAGGAAAA [XGTACX_negctrl_site92],11 ± 0.77
2,ATATATATGTATGTATATATATATATATATGTTTGA [CACACA_negctrl_site107],9.63
3,TTTTTTTTTCTGTATACACACAAAATTTATTTTTTA [CACACA_site2873],10.07 ± 0.064
4,TTAATAACGTAATGTAAATGTTTCATACCCTTTTTT [CACACA_negctrl_site988],9.955 ± 0.021
5,TGGGGTATTAAAAAAACACACAAAAAAAATATAAAG [CACACA_site1915],10.3 ± 0.36
6,AAAATGTATATTGGCGCATGTAAACAAATACTATAC [TGCATGCA_site385],10.08 ± 0.014
7,TCAAAATGTGACATAAAAGAAAAAAAAAAAAAAAAA [CACACA_negctrl_site1092],9.78 ± 0.42
8,GATAATAATAAGTGTACACATATATTTAGAAGAGTA [CACACA_site4245],11.5 ± 0.85
9,TGATATTATAGATATACACACATGTATGTATTTATA [CACACA_site6758],9.98 ± 0.16
10,ATACTAACATTTTTTTGTACATATAACTATAAAATA [XGTACX_site1033],10.9 ± 0.49
11,AAGGTAAACGGACACACACACATACAAAAAAAAAAA [CACACA_site5961],11.1 ± 0.82
12,AAATTTAGTAAAAAATGTACGTAAAATGTAAAATAT [XGTACX_site1314],11.5 ± 0.73
13,TATATATTATATAAATAAATAAATATATATATTTAT [TGCATGCA_negctrl_site270],9.585 ± 0.049
14,AATGATTTTGATTAACGTACGTACAAATATATATAT [XGTACX_site6604],11.5 ± 0.82
15,TATTTTACGACATACCAAAAAAAAAAAAAAAAAATA [CACACA_negctrl_site1254],10 ± 0.38
16,AAAAAAAAAAGACACACACACATAGACCTCCAATAG [CACACA_site7646],10.5 ± 0.11
17,TAAATCCGCAGGCACACACACATATTAATAAAAAAA [CACACA_site3991],10.2 ± 0.38
18,AATGTTAAACTATGATGTACGGTTAAAAATATAATT [XGTACX_site893],10.7 ± 0.42
